From PubChem BioAssay AID686979 (National Center for Advancing Translational Sciences (NCATS), 2013)
The campaign covered roughly 420,000 compounds. About 50,000 (12%) were called active. Inconclusive results, whose numbers are uncertain, are shown with a selection of clear calls. Calls follow the shape of the dose curve; as a rule, active = well fitted inhibition curve with a large enough effect; inconclusive = small, poorly fitted or top-dose-only effect; inactive = flat fitted curve, though single readings scatter. No potency is given beside an inconclusive call; the fits are too rough.
% is scaled to controls: 0 for no effect and ±100 for the full control effect; potency is read from the fitted curve at half-maximal effect; tags tell the direction and shape of the fitted curve.

Test: qHTS for Inhibitors of human tyrosyl-DNA phosphodiesterase 1 (TDP1): qHTS in cells in presence of CPT; also: nearly all actives have a fitted effect of over 55% in size
Details: chicken DT40 Tdp1-/-;hTDP1 cells + 20 nM CPT, ATP luminescence, 48 h; activity change, negative = growth inhibition: at 46.2 µM (top of the series)
Outline: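 Chicken DT40 Tdp1-/- cells complemented with human TDP1, 400 cells/well, exposed to compounds plus 20 nM camptothecin for at least 48 h at 37 C; viability read as ATP content by CellTiter-Glo luminescence.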
For `Cc1ccc(S(=O)(=O)NN=Cc2ccco2)cc1`, the Potency was “inactive”. For `CCOc1ccc(NS(=O)(=O)c2ccc(OCC)c3ncccc23)cc1`, the Potency was active: 11.2 µM. With `CCCCC1CCC(C(=O)N(CCOC)c2c(N)n(CCCC)c(=O)[nH]c2=O)CC1` (stereo not given) the Potency was inconclusive [inhibitor, single point]. For `COc1ccc(C(=O)NCCN2CCN(C(=O)c3ccc(OC)cc3)CC2)cc1`, the Potency was “inactive”. With `O=C(c1ccncc1)N1CCC2(CCC(CNC(=O)C3(N4CCOCC4)CCCCC3)O2)CC1` (stereo not given) the activity change, negative = growth inhibition was inactive: 5.28% [at 9.04 µM]. For `CCN(CC)S(=O)(=O)c1cccc(-c2nnc(SCC(=O)c3cc(C)n(C)c3C)o2)c1`, the Potency was active: 20.6 µM. For `Cc1ccccc1NC(=O)CN1C(=O)COc2ccc(Cl)cc21`, the Potency was inconclusive [inhibitor, single point]. For `COc1cccc(C(=O)C2CCCN(Cc3cccn3-c3cccnc3)C2)c1` (stereo not given), the Potency was inconclusive [inhibitor, single point]. In the case of `CCC(C(=O)OC)n1c(-c2ccccc2)nc2ccccc2c1=O` (stereo not given), the activity change, negative = growth inhibition is reported as inconclusive: -31.7% [inhibitor]. In the case of `CCCCCc1c(C)nc(NCc2ccccc2)[nH]c1=O`, the Potency is reported as inconclusive [inhibitor, partial curve]. With `Cc1ccc2oc(=O)cc(CN3CCN(C/C=C/c4ccccc4)CC3)c2c1` the Potency was inconclusive [inhibitor, partial curve, poor fit]. In the case of `CCOC(=O)c1cnc2ccc(C)cc2c1NCCN1CCOCC1`, the Potency is reported as “inactive”. With `COc1ccc(CNc2oc(COc3ccccc3Cl)nc2C#N)cc1` the Potency was inconclusive [inhibitor, single point]. For `Cc1ccc(C2CC(=O)Nc3cc4c(cc32)OCCO4)cc1Br` (stereo not given), the Potency was active: 18.4 µM. With `C=CCn1cc(C(=O)NCCCOC)c(=O)c2cc(S(=O)(=O)N3CCC(C)CC3)ccc21` the Potency was inconclusive [inhibitor, single point]. In the case of `O=C(Nc1cc(-c2nc3ncccc3o2)ccc1Cl)c1ccc2c(c1)OCO2`, the Potency is reported as “inactive”. With `Nc1c(C(=O)c2ccccc2)oc2ccc(Br)cc12` the Potency was inconclusive [inhibitor, partial curve]. In the case of `COc1ccc(CCNCC(=O)Nc2ccccc2C(F)(F)F)cc1`, the Potency is reported as inconclusive [inhibitor, single point]. In the case of `O=C(NCCc1ccccc1)C(c1cccs1)N(C(=O)CCl)c1ccc(Cl)cc1` (stereo not given), the Potency is reported as active: 1.84 µM. With `CCOc1ccc(-c2c(C(=O)N/N=C/c3ccco3)nnn2-c2nonc2N)cc1` the Potency was inconclusive [inhibitor, single point].
